Measurements as given in PMC4336329 (PLoS ONE, 2015).
Screen size: about 310,000 compounds; about 2,200 (0.71%) showed an effect of 50% or more. Effects have a minus sign here. Some of the results follow.

molecular target: human ether-à-go-go-related gene (hERG) potassium channel (human, UniProt Q12809); assay: primary screen, population patch clamp on CHO cells stably expressing hERG
Sequence (Q12809 whole entry, looked up): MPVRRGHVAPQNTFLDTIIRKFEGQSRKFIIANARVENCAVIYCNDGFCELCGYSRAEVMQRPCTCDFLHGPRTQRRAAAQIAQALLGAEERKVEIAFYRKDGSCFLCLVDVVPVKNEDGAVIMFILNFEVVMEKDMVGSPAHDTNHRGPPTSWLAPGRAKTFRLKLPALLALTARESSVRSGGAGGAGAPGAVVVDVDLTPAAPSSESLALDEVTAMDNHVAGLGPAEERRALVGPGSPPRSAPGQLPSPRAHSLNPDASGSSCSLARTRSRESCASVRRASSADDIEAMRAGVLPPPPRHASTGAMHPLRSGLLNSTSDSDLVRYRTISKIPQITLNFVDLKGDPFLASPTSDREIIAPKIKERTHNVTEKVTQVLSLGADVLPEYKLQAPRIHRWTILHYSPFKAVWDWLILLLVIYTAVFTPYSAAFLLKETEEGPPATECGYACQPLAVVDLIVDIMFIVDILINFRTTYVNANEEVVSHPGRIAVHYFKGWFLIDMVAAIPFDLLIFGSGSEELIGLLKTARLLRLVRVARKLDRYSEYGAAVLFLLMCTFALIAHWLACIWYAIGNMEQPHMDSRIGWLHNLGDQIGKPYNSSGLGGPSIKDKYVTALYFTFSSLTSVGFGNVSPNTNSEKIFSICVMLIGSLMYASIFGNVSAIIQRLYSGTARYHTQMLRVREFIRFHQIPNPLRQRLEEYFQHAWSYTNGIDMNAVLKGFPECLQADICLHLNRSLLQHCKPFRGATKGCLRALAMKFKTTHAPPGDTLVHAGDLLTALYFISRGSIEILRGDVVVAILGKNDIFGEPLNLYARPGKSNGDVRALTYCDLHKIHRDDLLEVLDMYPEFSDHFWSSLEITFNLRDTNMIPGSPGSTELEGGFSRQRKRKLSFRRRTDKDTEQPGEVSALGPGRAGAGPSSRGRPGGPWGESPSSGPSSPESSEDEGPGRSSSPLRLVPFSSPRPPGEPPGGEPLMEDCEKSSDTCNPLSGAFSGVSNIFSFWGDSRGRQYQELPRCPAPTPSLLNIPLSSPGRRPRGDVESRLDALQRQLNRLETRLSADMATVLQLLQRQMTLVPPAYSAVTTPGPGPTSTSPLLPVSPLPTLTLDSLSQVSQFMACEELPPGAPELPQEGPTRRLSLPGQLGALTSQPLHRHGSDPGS

First: Cc1nc2ccc(NC(=O)C3CCCCC3)cc2s1
Second: COc1ccccc1C(=O)NC1CCCCCCC1
The “hERG current change (%, negative = inhibition) at 1uM” value of the first is lower: -4.11% for the first, 11.8% for the second.

Going from `Clc1ccccc1CO/N=C1\CCCc2nonc21` to `O=S(=O)(c1ccc(S(=O)(=O)N(Cc2ccco2)Cc2ccccc2Cl)cc1)N1CCCC1`, the “hERG current change (%, negative = inhibition) at 1uM” value rises from -0.605% to 7.98%.

First: Cc1ccccc1N1C(=O)c2cc(S(N)(=O)=O)c(Cl)cc2NC1C (centres unmarked)
Second: O=C1Nc2ccc(Br)cc2C(c2ccccc2Cl)=NC1O (centres unmarked)
The “hERG current change (%, negative = inhibition) at 1uM” value of the first is higher: 16% for the first, -22.2% for the second.

First: O=P1(NCc2ccco2)COc2ccccc2OC1
Second: O=C(NCc1ccncc1)C1=NN(c2ccccc2)C(=O)CC1
The “hERG current change (%, negative = inhibition) at 1uM” value of the first is higher: 13.4% for the first, 9.76% for the second.

Compared with `CC12CCC3C(CC=C4CC(O)CCC43C)C1C/C(=C\c1ccccc1F)C2=O` (centres unmarked), `Cn1cc([C@@H]2C[C@H]3CN(C4CCCC4)C(=O)[C@]34CCCN24)c(-c2ccccc2)n1` is higher in “hERG current change (%, negative = inhibition) at 1uM” value: -1.81% for the first, -0.828% for the second.

Going from `CC(=O)Nc1ccc(Oc2cnccn2)cc1` to `CC(=O)Nc1ccc(S(=O)(=O)Nc2ccccc2C(=O)N2CCCC2)cc1`, the “hERG current change (%, negative = inhibition) at 1uM” value rises from 2.59% to 9.04%.

Compared with `CCNS(=O)(=O)c1ccc(-c2ccc(-n3cnnn3)cc2)cc1`, `Cc1ccc(-c2csc(NC(=O)CSc3ncn(-c4ccccc4)n3)n2)cc1` is higher in “hERG current change (%, negative = inhibition) at 1uM” value: 4.69% for the first, 8.31% for the second.

First: CCCCOc1ccc(/C=C/C2=CC(C)(C)NC(=S)N2)cc1OCC
Second: CCCc1cc(=O)[nH]c(SCc2nc3ccccc3o2)n1
The “hERG current change (%, negative = inhibition) at 1uM” value of the first is lower: 4.18% for the first, 11.7% for the second.

First: COCCNC(=S)N/N=C(\C)c1ccc(OC)cc1
Second: COCCNC(=S)Nc1ccccc1[N+](=O)[O-]
The “hERG current change (%, negative = inhibition) at 1uM” value of the first is lower: 9.25% for the first, 19.3% for the second.

First: O=C1C(Cl)=C(N2CCN(Cc3ccccc3)CC2)C(=O)N1c1ccccc1
Second: Cc1ccccc1CN1CCN(CC(=O)NCc2ccccc2)CC1
The “hERG current change (%, negative = inhibition) at 1uM” value of the first is higher: 8.07% for the first, 3.18% for the second.

Going from `Cc1ccc(C(=O)Nc2cc(C)nn2CCC#N)cc1` to `Cc1ccc(C)c(NC(=O)c2cc(C)nc3ccccc23)c1`, the “hERG current change (%, negative = inhibition) at 1uM” value rises from -5.59% to 0.996%.

First: Cc1ccccc1NC(=O)CSc1nnc(C)c2ccccc12
Second: Cc1cc(C(=O)Nc2ccccc2Cl)n(-c2ccccc2)n1
The “hERG current change (%, negative = inhibition) at 1uM” value of the first is lower: 6.96% for the first, 12.8% for the second.

First: COc1cccc(C2CC(=O)N3CN(c4cccc(Cl)c4C)CSC3=C2C#N)c1OC (centres unmarked)
Second: COc1ccc(CN(C)CC(=O)c2c(N)n(Cc3ccccc3)c(=O)n(C)c2=O)c(OC)c1
The “hERG current change (%, negative = inhibition) at 1uM” value of the first is higher: 8.5% for the first, -18.2% for the second.

First: COCc1cc(=O)[nH]c(-c2ccc(C(F)(F)F)cc2)n1
Second: O=C(NNc1nc2c(F)cccc2s1)c1ccc(F)cc1
The “hERG current change (%, negative = inhibition) at 1uM” value of the first is higher: 10.9% for the first, -0.0058% for the second.

First: Cc1ccc(C(=O)NC(=S)Nc2ccc3c(c2)OCCO3)c(C)c1
Second: Cc1nc2ccc(C(=O)N/N=C/c3ccccc3O)cc2[nH]1
The “hERG current change (%, negative = inhibition) at 1uM” value of the first is higher: 7.55% for the first, 6.05% for the second.

Compared with `CC(=O)NC(Cc1cccc(F)c1)C(=O)NC1CCN(C(=O)c2cccc(C)c2)CC1` (centres unmarked), `Fc1cccc(Cc2noc(CN3CCC(c4ccncc4)CC3)n2)c1` is higher in “hERG current change (%, negative = inhibition) at 1uM” value: -3.38% for the first, -1.98% for the second.

Compared with `CCc1sc(N(C(=O)Cc2ccccc2)c2ccc(F)cc2)nc1-c1ccccc1`, `O=C(NCc1ccccc1)C(c1ccccc1F)N(C(=O)c1csnn1)C1CCCC1` (centres unmarked) is lower in “hERG current change (%, negative = inhibition) at 1uM” value: 15.4% for the first, 9.59% for the second.

Compared with `CCOc1ccc(NC(=O)c2cccc(-n3cccc3)c2)cc1S(=O)(=O)N1CCOCC1`, `Cc1ccc(S(=O)(=O)N2CCCCC2)cc1NC(=O)CSc1nncn1-c1ccccc1` is higher in “hERG current change (%, negative = inhibition) at 1uM” value: 0.609% for the first, 6.21% for the second.

First: CCn1cc([N+](=O)[O-])c(C(=O)NCc2ccc(Cl)cc2)n1
Second: COc1cc(CC(=O)N/N=C/c2ccccc2)c([N+](=O)[O-])cc1OC
The “hERG current change (%, negative = inhibition) at 1uM” value of the first is lower: 2.4% for the first, 5.94% for the second.

Compared with `Cc1ccc(CSc2nncn2-c2ccccn2)cc1`, `CCn1c(SCC(=O)NC2CCCC2)nnc1-c1ccccn1` is higher in “hERG current change (%, negative = inhibition) at 1uM” value: 11.3% for the first, 16.6% for the second.

Compared with `O=C(c1cnccn1)N(Cc1ccco1)C1(C(=O)NC2CCCC2)CCCCC1`, `Cc1ccc(C)c(CN2C(=O)NC3(CCCCCC3)C2=O)c1` is higher in “hERG current change (%, negative = inhibition) at 1uM” value: 8.62% for the first, 15.9% for the second.

Compared with `COc1cccc(CNS(=O)(=O)c2cc(Br)cc3c2N(C(C)=O)C(C)C3)c1` (centres unmarked), `CC(=O)Oc1c(Br)cc(N(C(C)=O)S(=O)(=O)c2ccccc2)c2ccccc12` is higher in “hERG current change (%, negative = inhibition) at 1uM” value: -6.69% for the first, 19.9% for the second.

Going from `Cc1ccsc1/C=N/NC(=O)CNC(=O)c1ccco1` to `COCCNC(=O)C(c1ccc(C)o1)N(Cc1cccs1)C(=O)c1snc(C(N)=O)c1N` (centres unmarked), the “hERG current change (%, negative = inhibition) at 1uM” value falls from 16.1% to 4.93%.

First: CCCNC(=O)N1C2=NC(C(=O)OC)=C(C(=O)OC)[C@@H]3N(Cc4ccccc4)c4ccccc4[C@]23C[C@H]1CO
Second: CCOc1ccc(-n2c(=O)[nH]cc(C(=O)N3CCCc4ccccc43)c2=O)cc1
The “hERG current change (%, negative = inhibition) at 1uM” value of the first is lower: 9.69% for the first, 13% for the second.

First: COc1ccc(CC2NCCC3=CC(=O)CCC32)cc1O (centres unmarked)
Second: Cc1[nH]c2ccccc2c1C(=O)C(C)Sc1nnc(C2CC2)o1 (centres unmarked)
The “hERG current change (%, negative = inhibition) at 1uM” value of the first is higher: 13.5% for the first, 12.8% for the second.

First: Cc1cc(C)c(S(=O)(=O)Nc2ccnc(-c3cccnc3)n2)c(C)c1
Second: Cc1ccc(S(=O)(=O)NCc2ccc(C(=O)NCCc3ccc(S(N)(=O)=O)cc3)cc2)cc1
The “hERG current change (%, negative = inhibition) at 1uM” value of the first is higher: 22.5% for the first, 6% for the second.

Going from `O=C(NCC1CCCN1S(=O)(=O)c1cccs1)C(=O)Nc1ccc(F)cc1` (centres unmarked) to `Cc1noc(C)c1CSCC(=O)N(C)CC(=O)Nc1ccc(F)cc1`, the “hERG current change (%, negative = inhibition) at 1uM” value rises from -4.58% to 7.95%.

Going from `COc1ccc(N=C2S/C(=C\c3cc(C)n(C)c3C)C(=O)N2C)cc1` to `CC(C)(C)C(=O)CN1CCN(C2c3ccccc3-c3ccccc32)CC1`, the “hERG current change (%, negative = inhibition) at 1uM” value falls from 5.22% to -0.493%.
